Measured values from the supplement of paper PMC7826260.
Some of the results follow. Viral Rep nickase domains cut single-stranded DNA in vitro at 3 µM enzyme and 37 °C for 1 h; the strands have 90 letters, of which the middle is given. The score is log2 (uncut reads / reads without enzyme); strong cutting gives strongly negative numbers. There is no active / inactive call. The scaling is to total reads; where an enzyme cuts many sequences, the uncut ones exceed 0.

These sequences were tested on T1, Rep nickase domain of tomato golden mosaic virus (assay: uncleaved DNA left, log2 of reads against the no-enzyme library (log2 ratio); higher = less cleavage (more negative = more Rep cleavage of the k-mer); sequences stand for … in CTCGTCCG…ACCGGAGA).
T1 sequence (Rep 1-124, printed without the tag): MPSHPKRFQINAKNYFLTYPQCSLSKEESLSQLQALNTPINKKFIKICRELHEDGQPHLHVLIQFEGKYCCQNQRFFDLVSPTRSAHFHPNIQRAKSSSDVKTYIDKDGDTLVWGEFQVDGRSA
Experimental: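 A pool of 90-nt single-stranded DNAs with seven random bases just before the constant AC of the nick site (name = the seven bases) was cut by 3 µM recombinant His6-SUMO-tagged Rep nickase domain (300 nM DNA, 50 mM HEPES pH 8.0, 50 mM NaCl, 1 mM MnCl2, 1 h, 37 °C, three replicates). Uncut DNA was amplified and sequenced.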
In the case of CCTCGGA, the “uncleaved DNA left (log2)” value is reported as -0.027.
In the case of CTTAAAG, the “uncleaved DNA left (log2)” value is reported as -0.0683.
TTGGAGA was tested, and the “uncleaved DNA left (log2)” value was -0.101.
In the case of GCGCCTG, the “uncleaved DNA left (log2)” value is reported as -0.00615.
With GTATCGG the “uncleaved DNA left (log2)” value was 0.0768.
With TTGCTCT the “uncleaved DNA left (log2)” value was -0.121.
With AGCCTTA the “uncleaved DNA left (log2)” value was 0.0205.
In the case of CGCATAA, the “uncleaved DNA left (log2)” value is reported as -0.153.
In the case of AGTTTCA, the “uncleaved DNA left (log2)” value is reported as 0.0147.
AGCAATA was tested, and the “uncleaved DNA left (log2)” value was -0.0225.
In the case of TTCGTCG, the “uncleaved DNA left (log2)” value is reported as -0.102.
In the case of TCCCATG, the “uncleaved DNA left (log2)” value is reported as 0.0189.
For TCTCTCG, the “uncleaved DNA left (log2)” value was 0.0736.
For ACCAAAC, the “uncleaved DNA left (log2)” value was -0.0464.
With ATCCCGC the “uncleaved DNA left (log2)” value was 0.043.
ACTCAGC was tested, and the “uncleaved DNA left (log2)” value was 0.118.
CTAAGTA was tested, and the “uncleaved DNA left (log2)” value was 0.0471.
TAACCAA was tested, and the “uncleaved DNA left (log2)” value was -0.0393.
For GCGTCTG, the “uncleaved DNA left (log2)” value was 0.219.
AAAGTCA was tested, and the “uncleaved DNA left (log2)” value was -0.0702.
For ACATATA, the “uncleaved DNA left (log2)” value was 0.172.
In the case of TGTCCTG, the “uncleaved DNA left (log2)” value is reported as -0.0314.
CTGGCGC was tested, and the “uncleaved DNA left (log2)” value was 0.0343.
For TATGTTT, the “uncleaved DNA left (log2)” value was -0.213.
For AATTGTA, the “uncleaved DNA left (log2)” value was -0.0374.
With GTTCAAT the “uncleaved DNA left (log2)” value was -0.0071.
In the case of CTGGGTC, the “uncleaved DNA left (log2)” value is reported as -0.0868.
For CGAGTGG, the “uncleaved DNA left (log2)” value was 0.194.
CCGTGTT was tested, and the “uncleaved DNA left (log2)” value was -1.96.
In the case of TCGAAAG, the “uncleaved DNA left (log2)” value is reported as -0.0774.
With CAGCCCT the “uncleaved DNA left (log2)” value was -0.159.
For AAACATT, the “uncleaved DNA left (log2)” value was -0.125.
For AGATCCT, the “uncleaved DNA left (log2)” value was 0.0521.
For TAAACTA, the “uncleaved DNA left (log2)” value was -0.126.
With ACACTTG the “uncleaved DNA left (log2)” value was 0.0449.
For ACCTTAG, the “uncleaved DNA left (log2)” value was -0.044.
GGTTACC was tested, and the “uncleaved DNA left (log2)” value was 0.0331.
With CCCGGCT the “uncleaved DNA left (log2)” value was -0.057.
In the case of GGGGTGT, the “uncleaved DNA left (log2)” value is reported as -0.0562.
TTGCAGG was tested, and the “uncleaved DNA left (log2)” value was 0.19.
